# The campaign covered roughly 390,000 compounds. About 150 (0.038%) were called active. The shares of active, inactive and inconclusive entries below differ from those in the screen. The call rests on the fitted dose curve; in most records, active means well fitted inhibition curve with a large enough effect; inconclusive means small, poorly fitted or top-dose-only effect; inactive means no such curve, though single readings can be large or run the other way. Potencies beside an inconclusive call are fits to weak or partial responses and may not hold up.
# Biological target: Regulator of G-protein signaling 4 (Homo sapiens) (UniProt P49798)
# Sequence of UniProt P49798 (P49798 whole entry, looked up): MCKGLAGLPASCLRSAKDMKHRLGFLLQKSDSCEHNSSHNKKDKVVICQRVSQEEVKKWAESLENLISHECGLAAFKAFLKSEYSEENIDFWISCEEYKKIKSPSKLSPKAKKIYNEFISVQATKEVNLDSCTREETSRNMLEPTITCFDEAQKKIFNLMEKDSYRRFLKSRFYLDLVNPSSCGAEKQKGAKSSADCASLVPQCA
# Experiment: Inhibitors of Regulator of G Protein Signaling (RGS) 4: qHTS; further: nearly all actives have a fitted effect of over 75% in size
# Details: Transcreener GDP fluorescence polarization, RGS4-accelerated GTP hydrolysis; series mostly up to 114 µM
# In short: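 MLSMR compounds (23 nl, pin-transferred) preincubated 10 min at room temperature with a 500nM (2x) first reagent, then RGS4 at 900nM (2x) plus Transcreener GDP mix added; fluorescence polarization (620/688 nm) read before and after 90 min at 30 °C.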
# On the % scale 0 is the no-effect control and ±100 the full control effect; potency means the concentration at half of the fitted maximal effect; tags describe the fitted curve by direction and shape.
SMILES,Potency,"activity change, negative = inhibition"
CC(C)(C)c1nnc(NC(=O)c2cc(-c3ccccc3)nc3ccccc23)s1,"inconclusive: 79.4 µM [inhibitor, partial curve, poor fit]",
CCCNC(=O)Cc1c(OC)ccc2cc(Br)ccc12,"inconclusive: 70.8 µM [inhibitor, partial curve, poor fit]",
O=C1CCN(c2ccccc2)N1,"inconclusive: 44.7 µM [inhibitor, partial curve, poor fit]",
O=C(c1ccc2c(=O)n(-c3ccccc3)c(=O)[nH]c2c1)N1CCN(Cc2cccs2)CC1,inactive,
Cc1ccc(C)n1-c1nnc(N2CCCC(C(=O)NCc3ccc(F)cc3)C2)s1 (configuration not stated),inactive,
Cc1cc2nc(CCN(Cc3cccnc3)C(=S)Nc3ccc(F)cc3)[nH]c2cc1C,inactive,
COC(=O)c1ccc(NC(=S)N2CCN(C(=O)c3ccco3)CC2)cc1,"inconclusive: 79.4 µM [inhibitor, partial curve, poor fit]",
O=C(Cn1cnc2ccccc2c1=O)Nc1ccccc1N1CCOCC1,inactive,
CCOc1ccccc1NC(=O)Cn1cnc2c(nnn2-c2cccc(OC)c2)c1=O,"inconclusive: 89.1 µM [inhibitor, single point]",
CCOCCSC1=C(C#N)C(c2cccs2)C(C(C)=O)=C(C)N1 (configuration not stated),"inconclusive: 70.8 µM [inhibitor, single point]",
CC(OC(=O)c1ccc(-n2cnnn2)cc1)C(=O)Nc1ccc(F)c(F)c1F (configuration not stated),"inconclusive: 35.5 µM [inhibitor, full curve, poor fit]",
Nc1cc(=O)[nH]c(SCC(=O)Nc2cc([N+](=O)[O-])ccc2Cl)n1,"inconclusive: 50.1 µM [inhibitor, partial curve, poor fit]",
COc1cc(N2C(=O)C=CC2=O)ccc1N1C(=O)C=CC1=O,"inconclusive: 56.2 µM [inhibitor, partial curve, poor fit]",
O=C(CCOc1ccccc1)N1CCN(S(=O)(=O)c2ccccc2F)CC1,inactive,
COCc1cc(N2CCCCC2)nc(-c2ccccc2)n1,"inconclusive: 28.2 µM [inhibitor, full curve, poor fit]",
COC(=O)c1ccc(OCCOc2ccccc2)cc1,inactive,
Cn1c(N/N=C/c2c[nH]c3ccccc23)nc2ccccc21,"inconclusive: 89.1 µM [inhibitor, partial curve, poor fit]",
COc1cc2[nH]c(=S)n(C3CC3)c(=O)c2cc1OC,"inconclusive: 79.4 µM [inhibitor, partial curve, poor fit]",
COc1ccc2c(-c3ccccc3)cc(SCC(=O)NC(N)=O)nc2c1,inactive,
COc1ccc(NC(=O)COC(=O)c2ccc3ccccc3n2)c(OC)c1,"inconclusive: 50.1 µM [inhibitor, partial curve, poor fit]",
c1ccc(OCc2nnc3sc(C4COc5ccccc5O4)nn23)cc1 (configuration not stated),"inconclusive: 79.4 µM [inhibitor, partial curve, poor fit]",

SMILES,Potency,"activity change, negative = inhibition"
O=C(CSc1nnc(COc2ccc(Cl)cc2)o1)N1CCN(c2ccccc2)CC1,"inconclusive: 50.1 µM [inhibitor, partial curve, poor fit]",
Cc1ccc(S(=O)(=O)/N=C2/NC(=O)/C(=C/c3cc([N+](=O)[O-])ccc3O)S2)cc1,inactive,
Cc1ccc(C)c(NC(=O)CN(C)C(=O)c2ccc(-n3cncn3)c([N+](=O)[O-])c2)c1,inactive,
CC(=O)N[C@@H](CS)C(=O)O,"inconclusive: 0.238 µM [inhibitor, full curve, poor fit]",
O=S(=O)(c1ccccc1)N1CCN(c2nc(-c3ccc(F)cc3)nc3cc(Cl)ccc23)CC1,inactive,
N[C@@H](Cc1cc(I)c(Oc2ccc(O)cc2)c(I)c1)C(=O)O,"inconclusive: 8.44 µM [inhibitor, partial curve, poor fit]",
NC(=O)c1ccsc1NC(=O)CSc1n[nH]c(N)n1,"inconclusive: 89.1 µM [inhibitor, single point]",
CCCCNC(=O)C12CCC(C)(C(=O)C1Br)C2(C)C (configuration not stated),"inconclusive: 79.4 µM [inhibitor, single point]",
Cc1ccc(N(CC(=O)NCc2ccc(F)cc2)C(=O)CCC(=O)Nc2ccccn2)cc1C,"inconclusive: 89.1 µM [inhibitor, single point]",
COc1ccc(CCNC(=O)c2ccc(Cl)cc2Cl)cc1,"inconclusive: 100 µM [inhibitor, partial curve, poor fit]",
Cc1ccc(Cc2c[nH]c(=S)s2)cc1,"inconclusive: 44.7 µM [inhibitor, partial curve, poor fit]",
CCN(CC)C(=O)CSc1nnc(-c2ccc(F)cc2)n1N,"inconclusive: 89.1 µM [inhibitor, single point]",
COc1ccc(Cl)cc1C(=O)NNC(=O)c1cc2ccccc2o1,"inconclusive: 17.8 µM [inhibitor, full curve, poor fit]",
CC1CCN(C(c2cccs2)c2nnnn2Cc2ccccc2)CC1 (configuration not stated),,inactive: -5.04% [at 11.4 µM]
O=C(COC(=O)c1cc2ccccc2cc1O)NC(=O)NCc1ccco1,"inconclusive: 112 µM [inhibitor, partial curve, poor fit]",
Cc1ccc2c(c1)C(=O)C(=O)N2CCCOc1ccccc1C,"inconclusive: 35.5 µM [inhibitor, full curve, poor fit]",
CCOC(=O)c1ccc(NS(=O)(=O)c2ccc3[nH]c(=O)[nH]c3c2)cc1,"inconclusive: 79.4 µM [inhibitor, single point]",
O=C(c1cccc(C(F)(F)F)c1)C1CCCN(C(=O)C2CCOCC2)C1 (configuration not stated),"inconclusive: 89.1 µM [inhibitor, single point]",
Cc1ccc(C(=O)c2cn(CC(=O)Nc3ccc4c(c3)OCCO4)c3nc(C)ccc3c2=O)cc1,"inconclusive: 89.1 µM [inhibitor, partial curve, poor fit]",
O=c1[nH]c(C2CCN(S(=O)(=O)c3ccc4c(c3)OCCO4)CC2)nc2c1nnn2Cc1cccc(F)c1,inactive,
CC1(C)CNc2cc(N)ccc2S1,"inconclusive: 70.8 µM [inhibitor, partial curve, poor fit]",

# — PubChem BioAssay AID504845 (National Center for Advancing Translational Sciences (NCATS), 2011)
